T1: Splicing factor 1 (SF1) (human (endogenous in HeLa)), Q15637
T1 chain: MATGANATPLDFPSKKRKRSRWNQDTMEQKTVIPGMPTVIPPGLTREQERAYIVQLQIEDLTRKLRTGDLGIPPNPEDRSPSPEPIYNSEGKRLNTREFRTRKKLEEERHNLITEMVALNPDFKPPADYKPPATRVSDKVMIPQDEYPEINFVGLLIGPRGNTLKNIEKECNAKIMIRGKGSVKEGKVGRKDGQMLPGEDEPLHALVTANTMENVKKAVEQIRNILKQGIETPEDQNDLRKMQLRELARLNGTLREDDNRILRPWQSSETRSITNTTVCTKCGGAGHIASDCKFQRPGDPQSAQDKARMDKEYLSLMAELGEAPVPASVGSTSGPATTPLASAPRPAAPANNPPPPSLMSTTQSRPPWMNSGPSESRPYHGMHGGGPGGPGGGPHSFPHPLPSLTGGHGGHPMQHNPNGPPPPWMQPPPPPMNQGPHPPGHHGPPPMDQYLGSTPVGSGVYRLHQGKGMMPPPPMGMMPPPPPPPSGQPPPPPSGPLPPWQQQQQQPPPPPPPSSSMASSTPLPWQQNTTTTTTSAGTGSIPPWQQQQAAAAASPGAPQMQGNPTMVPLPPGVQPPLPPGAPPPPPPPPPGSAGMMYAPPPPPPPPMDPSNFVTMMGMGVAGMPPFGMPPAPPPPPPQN

T2: GST-CHERP-SURP (UniProt Q8IWX8)
T2 sequence: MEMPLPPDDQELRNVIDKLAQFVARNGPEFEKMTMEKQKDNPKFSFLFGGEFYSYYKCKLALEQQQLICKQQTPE

T3: GST-SF3a120-SURP1 (UniProt Q15459)
T3 sequence: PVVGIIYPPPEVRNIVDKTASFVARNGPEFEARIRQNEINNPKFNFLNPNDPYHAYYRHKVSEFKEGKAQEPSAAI

T4: Splicing factor 1 (SF1) (human (endogenous in HeLa)) (UniProt Q15637)
T4 sequence: T1 chain

B1: suppressor of white-apricot homolog (SFSWAP), Q12872 1-951 (protein)
chain: MYGASGGRAKPERKSGAKEEAGPGGAGGGGSRVELLVFGYACKLFRDDERALAQEQGQHLIPWMGDHKILIDRYDGRGHLHDLSEYDAEYSTWNRDYQLSEEEARIEALCDEERYLALHTDLLEEEARQEEEYKRLSEALAEDGSYNAVGFTYGSDYYDPSEPTEEEEPSKQREKNEAENLEENEEPFVAPLGLSVPSDVELPPTAKMHAIIERTASFVCRQGAQFEIMLKAKQARNSQFDFLRFDHYLNPYYKFIQKAMKEGRYTVLAENKSDEKKKSGVSSDNEDDDDEEDGNYLHPSLFASKKCNRLEELMKPLKVVDPDHPLAALVRKAQADSSTPTPHNADGAPVQPSQVEYTADSTVAAMYYSYYMLPDGTYCLAPPPPGIDVTTYYSTLPAGVTVSNSPGVTTTAPPPPGTTPLPPPTTAETSSGATSTTTTTSALAPVAAIIPPPPDVQPVIDKLAEYVARNGLKFETSVRAKNDQRFEFLQPWHQYNAYYEFKKQFFLQKEGGDSMQAVSAPEEAPTDSAPEKPSDAGEDGAPEDAAEVGARAGSGGKKEASSSKTVPDGKLVKASFAPISFAIKAKENDLLPLEKNRVKLDDDSDDDEESKEGQESSSSAANTNPAVAPPCVVVEEKKPQLTQEELEAKQAKQKLEDRLAAAAREKLAQASKESKEKQLQAERKRKAALFLQTLKNPLPEAEAGKIEESPFSVEESSTTPCPLLTGGRPLPTLEVKPPDRPSSKSKDPPREEEKEKKKKKHKKRSRTRSRSPKYHSSSKSRSRSHSKAKHSLPSAYRTVRRSRSRSRSPRRRAHSPERRREERSVPTAYRVSRSPGASRKRTRSRSPHEKKKKRRSRSRTKSKARSQSVSPSKQAAPRPAAPAAHSAHSASVSPVESRGSSQERSRGVSQEKEAQISSAIVSSVQSKITQDLMAKVRAMLAASKNLQTSAS
B2: His6-SF1-C302 (domain or fragment, UniProt Q15637 1-302)
chain: MATGANATPLDFPSKKRKRSRWNQDTMEQKTVIPGMPTVIPPGLTREQERAYIVQLQIEDLTRKLRTGDLGIPPNPEDRSPSPEPIYNSEGKRLNTREFRTRKKLEEERHNLITEMVALNPDFKPPADYKPPATRVSDKVMIPQDEYPEINFVGLLIGPRGNTLKNIEKECNAKIMIRGKGSVKEGKVGRKDGQMLPGEDEPLHALVTANTMENVKKAVEQIRNILKQGIETPEDQNDLRKMQLRELARLNGTLREDDNRILRPWQSSETRSITNTTVCTKCGGAGHIASDCKFQRPGDPQS
B3: His6-MBP-SF1 295–335 (domain or fragment, UniProt Q15637 295-335)
chain: QRPGDPQSAQDKARMDKEYLSLMAELGEAPVPASVGSTSGP
B4: His6-MBP-SF1 127–302 (domain or fragment, UniProt Q15637 127-302)
chain: ADYKPPATRVSDKVMIPQDEYPEINFVGLLIGPRGNTLKNIEKECNAKIMIRGKGSVKEGKVGRKDGQMLPGEDEPLHALVTANTMENVKKAVEQIRNILKQGIETPEDQNDLRKMQLRELARLNGTLREDDNRILRPWQSSETRSITNTTVCTKCGGAGHIASDCKFQRPGDPQS
B5: His6-MBP-SF1 304–326 (domain or fragment, UniProt Q15637 304-326)
chain: QDKARMDKEYLSLMAELGEAPVP
B6: His6-MBP-SF1-C370 Δ306–326 (domain or fragment, UniProt Q15637)
chain: MATGANATPLDFPSKKRKRSRWNQDTMEQKTVIPGMPTVIPPGLTREQERAYIVQLQIEDLTRKLRTGDLGIPPNPEDRSPSPEPIYNSEGKRLNTREFRTRKKLEEERHNLITEMVALNPDFKPPADYKPPATRVSDKVMIPQDEYPEINFVGLLIGPRGNTLKNIEKECNAKIMIRGKGSVKEGKVGRKDGQMLPGEDEPLHALVTANTMENVKKAVEQIRNILKQGIETPEDQNDLRKMQLRELARLNGTLREDDNRILRPWQSSETRSITNTTVCTKCGGAGHIASDCKFQRPGDPQSAQDGTASVGSTSGPATTPLASAPRPAAPANNPPPPSLMSTTQSRPPWMN
B7: His6-SF1-C315 (domain or fragment, UniProt Q15637 1-315)
chain: MATGANATPLDFPSKKRKRSRWNQDTMEQKTVIPGMPTVIPPGLTREQERAYIVQLQIEDLTRKLRTGDLGIPPNPEDRSPSPEPIYNSEGKRLNTREFRTRKKLEEERHNLITEMVALNPDFKPPADYKPPATRVSDKVMIPQDEYPEINFVGLLIGPRGNTLKNIEKECNAKIMIRGKGSVKEGKVGRKDGQMLPGEDEPLHALVTANTMENVKKAVEQIRNILKQGIETPEDQNDLRKMQLRELARLNGTLREDDNRILRPWQSSETRSITNTTVCTKCGGAGHIASDCKFQRPGDPQSAQDKARMDKEYLS
B8: calcium homoeostasis endoplasmic reticulum protein (CHERP) (protein, UniProt Q8IWX8 1-916)
chain: MEMPLPPDDQELRNVIDKLAQFVARNGPEFEKMTMEKQKDNPKFSFLFGGEFYSYYKCKLALEQQQLICKQQTPELEPAATMPPLPQPPLAPAAPIPPAQGAPSMDELIQQSQWNLQQQEQHLLALRQEQVTAAVAHAVEQQMQKLLEETQLDMNEFDNLLQPIIDTCTKDAISAGKNWMFSNAKSPPHCELMAGHLRNRITADGAHFELRLHLIYLINDVLHHCQRKQARELLAALQKVVVPIYCTSFLAVEEDKQQKIARLLQLWEKNGYFDDSIIQQLQSPALGLGQYQATLINEYSSVVQPVQLAFQQQIQTLKTQHEEFVTSLAQQQQQQQQQQQQLQMPQMEAEVKATPPPPAPPPAPAPAPAIPPTTQPDDSKPPIQMPGSSEYEAPGGVQDPAAAGPRGPGPHDQIPPNKPPWFDQPHPVAPWGQQQPPEQPPYPHHQGGPPHCPPWNNSHEGMWGEQRGDPGWNGQRDAPWNNQPDAAWNSQFEGPWNSQHEQPPWGGGQREPPFRMQRPPHFRGPFPPHQQHPQFNQPPHPHNFNRFPPRFMQDDFPPRHPFERPPYPHRFDYPQGDFPAEMGPPHHHPGHRMPHPGINEHPPWAGPQHPDFGPPPHGFNGQPPHMRRQGPPHINHDDPSLVPNVPYFDLPAGLMAPLVKLEDHEYKPLDPKDIRLPPPMPPSERLLAAVEAFYSPPSHDRPRNSEGWEQNGLYEFFRAKMRARRRKGQEKRNSGPSRSRSRSKSRGRSSSRSNSRSSKSSGSYSRSRSRSCSRSYSRSRSRSRSRSRSSRSRSRSQSRSRSKSYSPGRRRRSRSRSPTPPSSAGLGSNSAPPIPDSRLGEENKGHQMLVKMGWSGSGGLGAKEQGIQDPIKGGDVRDKWDQYKGVGVALDDPYENYRRNKSYSFIARMKARDECK

These are yes or no findings as the source states them, for the method shown. For some assays here: In cells and extracts the contact can be indirect. Some results given as binding are weak or reduced against the parent protein; the word gives no strength. For some assays here: Sequences can lack the tags named with a protein.

The first test concerns the target T1, Splicing factor 1 (SF1) (human …). The test can be described thus: co-IP; anti-SF1 on Dynabeads Protein G; RNase A-treated HeLa cell nuclear extract, 1 h 4°C; washes 50 mM Tris-HCl pH 7.5, 100 mM NaCl, 0.05% NP-40, 0.5 mM DTT; western blot; control mouse IgG. The settings on record: remark: other sources report otherwise.
With B1, the binding result is “no binding”.

The target of another test is T2, GST-CHERP-SURP. As to the kind of experiment: pull-down; GST fusion proteins on glutathione-agarose; His6- or His6-MBP-tagged SF1 proteins in two-fold molar excess; NETN (20 mM Tris-HCl pH 8.0, 50 mM NaCl, 0.5% NP-40, 0.5 mM EDTA), 45 min 4°C; with or without RNase A; western blot with anti-His6; both purified.
Conditions: not given
With B2, the binding entry is given as “no binding”.
Take B3: the binding result is reported as “binds weakly”.
On the same count and under the same terms, for B4 the value was “no binding”; for B5, “no binding”; for B6, “no binding”.
Still for that read-out and setting: the entry for B7 is “binds weakly”.

Another test concerns the target T3, GST-SF3a120-SURP1. Described as above.
Conditions: not given
As to B2, the binding result was “no binding”.
Still for that read-out and setting: for B3 the value was “binds weakly”; for B4, “no binding”.
On to B5, for which the binding entry is “no binding”.
The same measure, in the same setting: for B6 the value was “no binding”; for B7, “binds weakly”.

The target in another test is T4, Splicing factor 1 (SF1) (human (endogenous in HeLa)). As to the kind of experiment: co-IP; anti-SF1 on Dynabeads Protein G; RNase A-treated HeLa cell nuclear extract, 1 h 4°C; washes 50 mM Tris-HCl pH 7.5, 100 mM NaCl, 0.05% NP-40, 0.5 mM DTT; western blot; control mouse IgG.
Conditions: not given
As for B8, the binding entry is on record as “binds”.

Source of the values: publication PMC4666396.
